From PubChem BioAssay AID2147 (National Center for Advancing Translational Sciences (NCATS), 2009)
Several values for one entry are separate records, joined by “and”; a condition that tells them apart may be missing. Equal values may be shown once. In all, about 230,000 compounds went through this assay and about 3,600 (1.6%) were called active. This list was built around the results that the source calls inconclusive (neither active nor inactive); the mix of calls is not that of the screen. Calls come from the whole dose curve; as a rule, active = well fitted inhibition curve with a large enough effect (not every such curve was filed as active); inconclusive = small, poorly fitted or top-dose-only effect, or another doubt; inactive = no such curve, though single readings can be large or run the other way. Where the call is inconclusive, the potency comes from a doubtful curve fit.

target: Lysine-specific demethylase 4E (Homo sapiens) (UniProt B2RXH2); test: qHTS Assay for Inhibitors of Human Jumonji Domain Containing 2E (JMJD2E); settings: JMJD2E catalytic domain, FDH-coupled NADH fluorescence (FDH is formaldehyde dehydrogenase); series mostly up to 57.1 µM
Note: nearly all actives have a fitted effect of over 50% in size.
Potency is the fitted concentration of half-maximal effect; tags give direction and shape of the fitted curve.

Chain of UniProt B2RXH2 (B2RXH2 whole entry, looked up, the tested form may be a part): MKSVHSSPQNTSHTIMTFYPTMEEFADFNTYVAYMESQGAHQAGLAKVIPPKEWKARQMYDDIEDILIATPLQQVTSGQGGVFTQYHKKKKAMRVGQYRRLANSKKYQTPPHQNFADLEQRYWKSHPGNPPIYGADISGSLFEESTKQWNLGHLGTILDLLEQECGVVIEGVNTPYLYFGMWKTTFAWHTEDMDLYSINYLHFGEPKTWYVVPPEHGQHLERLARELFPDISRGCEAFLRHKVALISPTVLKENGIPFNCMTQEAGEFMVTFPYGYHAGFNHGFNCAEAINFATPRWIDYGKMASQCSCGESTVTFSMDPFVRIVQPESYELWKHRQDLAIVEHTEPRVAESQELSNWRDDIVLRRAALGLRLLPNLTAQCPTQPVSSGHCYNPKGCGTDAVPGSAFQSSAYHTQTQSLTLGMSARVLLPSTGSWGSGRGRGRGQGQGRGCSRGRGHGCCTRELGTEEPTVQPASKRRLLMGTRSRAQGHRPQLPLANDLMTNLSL

| Structure (SMILES) | Potency |
| --- | --- |
| COc1ccccc1-n1cc(C(=O)NCC(=O)NCc2ccc(F)cc2)c2ccccc2c1=O | inconclusive: 39.8 µM [inhibitor, single point] |
| O=C(O)CSc1ccc2nnc(-c3cccnc3)n2n1 | inconclusive: 22.4 µM [inhibitor, single point] |
| COc1cc2ncnc(NCc3ccccc3Cl)c2cc1OC | inconclusive: 25.1 µM [inhibitor, single point] |
| COc1ccccc1Nc1nc(N)nc(CN2CCN(c3ccccc3F)CC2)n1 | inconclusive: 39.8 µM [inhibitor, single point] |
| Cc1nnn(-c2nonc2N)c1C(=O)N/N=C/c1ccccc1O | active: 12.6 µM |
| Cc1nc(C(=O)N(C)C)nn1-c1cc(Cl)ccc1Cl | inconclusive: 15.8 µM [inhibitor, partial curve, poor fit] |
| COc1ccc2nc3ccccc3nc2c1 | inconclusive: 28.2 µM [inhibitor, partial curve] |
| Cn1c(=O)c2ccccc2n(Cc2ccccc2F)c1=O | inconclusive: 39.8 µM [inhibitor, single point] |
| O=C(Nc1ccc([N+](=O)[O-])cc1)Nc1ccc(N2CCOCC2)c2nonc12 | inconclusive: 15.8 µM [inhibitor, partial curve] |
| CCCCC(=O)Nc1cccc(C(=O)Nc2ccccc2C(=O)O)c1 | inactive |
| Cc1cccc(OCCOc2ccccc2C=C(C#N)C#N)c1 | inactive |
| CC1CCN(c2ccc(C(=O)O)cc2N)CC1 | inconclusive: 25.1 µM [inhibitor, single point] |
| COC(=O)CCCC1=CC2=CC(=O)C(C)(OC(=O)c3cccs3)C(=O)C2=CN1CCCOC(C)C (centres undefined) | inconclusive: 22.4 µM [inhibitor, single point] and inconclusive: 3.55 µM [inhibitor, single point] |
| CCOC(=O)c1ccc(N2C(=O)C3C(/C=C/c4ccccc4)OC4(C(=O)c5ccccc5C4=O)C3C2=O)cc1 (centres undefined) | inactive |
| CCCCCCn1c(CN2CCN(Cc3ccccc3)CC2)nc2c1c(=O)n(C)c(=O)n2C | inactive |
| Cc1ccc(S(=O)(=O)N/N=C/c2ccc(OS(=O)(=O)c3ccc(C)c([N+](=O)[O-])c3)cc2)cc1 | inactive |
| COc1ccc(-c2csc(NC(=O)c3ccc(N4C(=O)CCC4=O)cc3)n2)cc1 | inconclusive: 35.5 µM [inhibitor, single point] |
| CC(=O)Nc1c(-c2ccc(F)cc2)nc2ccccn12 | inconclusive: 31.6 µM [inhibitor, partial curve] |
| CCOc1cc(-c2c(C)c(C)nc(N)c2C#N)ccc1O | inconclusive: 35.5 µM [inhibitor, single point] |
